The list shows a part of the results. Each Rep nickase domain was tested in vitro on the same pool of single strands for 1 h at 37 °C with 3 µM enzyme; only the middle of the 90-letter strands is printed. Numbers give uncut DNA relative to the enzyme-free pool, as log2; more negative means more cut, near 0 not cut, and no call is made. Shares of all reads are compared; where an enzyme cuts many sequences, the uncut ones exceed 0.
Assays:
Assay in all cases: uncleaved DNA left, log2 of reads against the no-enzyme library (log2 ratio); higher = less cleavage (more negative = more Rep cleavage of the k-mer); sequences stand for … in CTCGTCCG…ACCGGAGA
[1] = test system: T1, Rep nickase domain of Muscovy duck circovirus
T1 sequence (residues 1-111, tag not shown): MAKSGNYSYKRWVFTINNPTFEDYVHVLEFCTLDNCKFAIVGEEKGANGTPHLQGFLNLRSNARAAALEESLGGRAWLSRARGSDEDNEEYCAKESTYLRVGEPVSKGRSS
Description: (§1)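 A pool of 90-nt single-stranded DNAs with seven random bases just before the constant AC of the nick site (name = the seven bases) was cut by 3 µM recombinant His6-SUMO-tagged Rep nickase domain (300 nM DNA, 50 mM HEPES pH 8.0, 50 mM NaCl, 1 mM MnCl2, 1 h, 37 °C, three replicates). Uncut DNA was amplified and sequenced.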

[2] = test system: T2, Rep nickase domain of banana bunchy top virus
T2 sequence (residues 1-94, tag not shown): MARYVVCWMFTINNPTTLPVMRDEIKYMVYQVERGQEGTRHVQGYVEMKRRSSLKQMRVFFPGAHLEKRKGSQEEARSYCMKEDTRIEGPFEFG
Description: as §1

[3] = test system: T3, Rep nickase domain of cabbage leaf curl virus
T3 sequence (residues 1-116, tag not shown): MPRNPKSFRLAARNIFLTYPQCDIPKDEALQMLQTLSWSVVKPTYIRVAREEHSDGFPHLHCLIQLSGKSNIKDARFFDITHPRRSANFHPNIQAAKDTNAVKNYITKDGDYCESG
Description: as §1

[4] = test system: T4, Rep nickase domain of chickpea chlorotic dwarf virus
T4 sequence (residues 1-124, tag not shown): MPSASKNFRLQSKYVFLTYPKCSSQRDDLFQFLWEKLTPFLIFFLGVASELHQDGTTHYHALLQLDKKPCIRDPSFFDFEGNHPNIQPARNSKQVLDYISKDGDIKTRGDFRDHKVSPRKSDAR
Description: as §1

[5] = test system: T5, Rep nickase domain of faba bean necrotic yellows virus
T5 sequence (residues 1-98, tag not shown): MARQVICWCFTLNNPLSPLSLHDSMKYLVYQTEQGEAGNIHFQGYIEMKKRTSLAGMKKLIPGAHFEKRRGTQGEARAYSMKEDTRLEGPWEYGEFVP
Description: as §1

[6] = test system: T6, Rep nickase domain of maize striate mosaic virus
T6 sequence (residues 1-117, tag not shown): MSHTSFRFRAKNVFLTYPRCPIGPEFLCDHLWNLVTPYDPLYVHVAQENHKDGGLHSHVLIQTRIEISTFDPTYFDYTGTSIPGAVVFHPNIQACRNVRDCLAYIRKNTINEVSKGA
Description: as §1

[7] = test system: T7, Rep nickase domain of porcine circovirus 2
T7 sequence (residues 2-116, tag not shown): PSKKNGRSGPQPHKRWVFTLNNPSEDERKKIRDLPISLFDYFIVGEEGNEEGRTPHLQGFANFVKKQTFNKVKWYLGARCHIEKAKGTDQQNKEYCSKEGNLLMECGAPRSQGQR
Description: as §1

[8] = test system: T8, Rep nickase domain of tomato yellow leaf curl virus
T8 sequence (residues 1-136, tag not shown): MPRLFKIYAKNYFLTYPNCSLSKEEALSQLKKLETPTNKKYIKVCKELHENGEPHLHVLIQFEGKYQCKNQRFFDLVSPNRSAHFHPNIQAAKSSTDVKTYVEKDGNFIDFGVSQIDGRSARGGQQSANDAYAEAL
Description: as §1

[9] = test system: T9, Rep nickase domain of wheat dwarf virus
T9 sequence (residues 1-137, tag not shown): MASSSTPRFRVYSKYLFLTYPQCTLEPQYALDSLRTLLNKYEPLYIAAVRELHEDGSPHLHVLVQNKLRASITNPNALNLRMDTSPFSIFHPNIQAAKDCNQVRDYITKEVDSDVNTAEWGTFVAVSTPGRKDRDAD
Description: as §1

Row | Sequence | uncleaved DNA left (log2) [1] | uncleaved DNA left (log2) [2] | uncleaved DNA left (log2) [3] | uncleaved DNA left (log2) [4] | uncleaved DNA left (log2) [5] | uncleaved DNA left (log2) [6] | uncleaved DNA left (log2) [7] | uncleaved DNA left (log2) [8] | uncleaved DNA left (log2) [9]
1 | GCACTAA | -0.163 | 0.000338 | -0.122 | 0.188 | -0.0863 | 0.0349 | 0.00402 | -0.087 | -0.0187
2 | CGAGCTC | -0.000379 | 0.0454 | 0.0791 | 0.384 | -0.0412 | 0.278 | -0.0261 | -0.0374 | -0.0318
3 | GTGGTGC | 0.0499 | -0.0555 | 0.2 | 0.584 | -0.0398 | 1.28 | 0.0512 | -0.00108 | -0.0723
4 | AAATTAG | 0.209 | 0.172 | -0.637 | -0.0184 | 0.121 | -0.964 | 0.265 | 0.243 | 0.101
5 | CAGTAGT | -2.21 | -3.46 | -0.597 | -1.62 | -3.18 | -0.926 | -4.66 | -0.0813 | -0.152
6 | TCTATCG | -0.0873 | -0.0729 | -0.869 | -0.472 | -0.139 | -1.2 | -0.0267 | -0.0675 | -0.179
7 | TAGAGGC | 0.0537 | -0.0462 | 0.134 | 0.0975 | 0.0442 | -0.569 | -0.00898 | 0.0592 | 0.0103
8 | AGATCAC | -0.0161 | 0.0852 | 0.239 | 0.243 | 0.00998 | 0.177 | 0.157 | 0.158 | 0.119
9 | ATGTTAC | -2.66 | -0.119 | -1.51 | -2.6 | -0.0742 | -1.31 | -2.43 | -0.0221 | -0.422
10 | TTCACTC | -0.00248 | -0.00795 | 0.176 | -0.711 | 0.0256 | -0.154 | 0.061 | 0.0505 | 0.0545
11 | GCGGTCT | 0.0545 | 0.133 | 0.51 | 0.917 | 0.0665 | 1.65 | 0.0192 | -0.000284 | 0.0414
12 | GATCTAA | -0.0248 | 0.0544 | 0.222 | 0.655 | -0.0533 | 1.06 | 0.025 | 0.129 | 0.0281
13 | GGCATTT | -0.0716 | -0.0342 | 0.683 | 1.56 | -0.101 | 2.03 | 0.0111 | -0.0663 | 0.126
14 | AGTGGGA | 0.109 | 0.0375 | 0.12 | 0.538 | -0.0354 | 0.408 | -0.00714 | -0.0326 | 0.0182
15 | TGCTCAT | 0.00879 | 0.123 | 0.253 | -0.0593 | 0.211 | -0.0129 | -0.41 | 0.119 | 0.148
16 | CATACGT | 0.0844 | -0.117 | 0.164 | -0.535 | 0.0956 | -0.496 | 0.01 | -0.0532 | -0.0957
17 | CTGGACA | 0.114 | 0.135 | 0.73 | 1.64 | -0.0636 | 1.95 | 0.38 | 0.0367 | 0.219
18 | ACTGGAT | 0.124 | 0.0635 | 0.245 | 1.55 | -0.017 | 1.65 | 0.128 | -0.0656 | -0.0607
19 | TTAGTAC | -0.739 | -0.0387 | 0.216 | -0.68 | 0.0801 | -0.17 | -1 | 0.0801 | 0.0365
20 | TAATCTG | -0.00925 | -0.036 | -0.495 | -0.923 | 0.0292 | 0.611 | 0.132 | -0.0205 | -0.0206
21 | TTGGACG | 0.135 | 0.0685 | -0.314 | -0.281 | -0.0695 | -1.03 | 0.0342 | 0.0714 | -0.00475
22 | GTTGTGC | 0.144 | -0.00479 | -0.0717 | 0.0161 | -0.0558 | -0.602 | 0.0594 | -0.0154 | 0.00539
23 | CACCTTA | -0.017 | 0.0261 | -0.143 | -2.25 | -0.0236 | -0.62 | -0.338 | 0.0516 | -0.0991
24 | TTACTCA | -0.002 | 0.0425 | 0.0288 | -1.77 | -0.0585 | 0.0677 | -0.165 | 0.103 | 0.0963
25 | AAATAGT | -3.96 | -0.792 | -4.42 | -3.57 | -0.0745 | -3.78 | -4.48 | -0.551 | -4.11
26 | AACTCAC | -0.0608 | -0.147 | -0.251 | -0.627 | 0.0506 | -0.582 | -0.868 | -0.068 | -0.015
